Results reported in the supplement of paper PMC11369174, “Proteome-scale characterisation of motif-based interactome rewiring by disease mutations” (Molecular Systems Biology, 2024).
Some of the results follow. Values come from read counts of a selection and are noisy.

T1: AHNAK2_PDZ__Q8IVF2_108_193
T1 chain: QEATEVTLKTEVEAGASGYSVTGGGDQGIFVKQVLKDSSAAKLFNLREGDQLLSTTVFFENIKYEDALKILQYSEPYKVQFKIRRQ


Each binder was assayed against ABL1_SH3__P00519_60_121 (assay: mean normalised NGS count of phage-displayed peptide after selection on bait (% of reads); baits are purified protein domains named by gene / domain / UniProt id / residues; peptides come from disordered regions of human proteins; higher = stronger enrichment / binding). Conditions: replicate selections in which the peptide was seen: 6.
Sequence of ABL1_SH3__P00519_60_121 (chain, as listed by the source): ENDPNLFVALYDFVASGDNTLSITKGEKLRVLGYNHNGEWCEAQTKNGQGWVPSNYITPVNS

Binder	mean normalised NGS count
GPPIIPPPPPIAPDSL [SMN1 239-254 wt]	0.423
PPPSYPSPKPAMDPGL [EGR2 204-219 mut P11161.T215M]	2.91
LPMQPPVPSQTSSYSA [PAX6 341-356 wt]	0.726
PPDFAAPKAQYQAPVM [IKBKG 392-407 mut Q9Y6K9.D406V]	2.19
PPPLPLQPPFGLDFYS [MARVELD2 48-63 mut Q8N4S9.P59L]	11.7
EIPPPLPVWTPESFIV [PTPN22 612-627 mut Q9Y2R2.R620W]	1.54
SPRFSPPPASRLSPPA [MSX1 148-163 mut P28360.R157S]	3.49
YAGPEVAAPGLPELRA [NKX2-5 56-71 mut P52952.A61V]	0.131
TEPPMGVPPPPPPAPD [NR5A1 122-137 mut Q13285.G123E]	0.897
TGPPMGVPPPPPPAPD [NR5A1 122-137 wt]	0.888
LPMQPPVPSQTSAYSA [PAX6 341-356 mut P26367.S353A]	0.335
YAPLSKVPPPPAYPPP [NANOS1 264-279 mut Q8WY41.R276Y]	0.335
PAHPPPSAAAPAPAPS [CHCHD10 24-39 wt]	0.861
DPLPPPPLPLQPPFGL [MARVELD2 44-59 mut Q8N4S9.P59L]	23.1
PPPLPLQPPFGPDFYS [MARVELD2 48-63 wt]	16.2
PVAPAPAAPTPAAPAP [TP53 72-87 wt]	3.82
FKLETGPPMGVPPLPP [NR5A1 118-133 mut Q13285.P131L]	0.262
DPLPPPPLPLQPPFGP [MARVELD2 44-59 wt]	7.59
YPPPPSMPPIRLDNVA [ANXA11 28-43 mut P50995.G38R]	0.06
EIPPPLPVRTPESFIV [PTPN22 612-627 wt]	0.374
PPDFAAPKAQYQAPDV [IKBKG 392-407 mut Q9Y6K9.M407V]	0.0571
FKLETEPPMGVPPPPP [NR5A1 118-133 mut Q13285.G123E]	0.457
PPPSYPSPKPATDPGL [EGR2 204-219 wt]	0.186

Same assay, conditions: replicate selections in which the peptide was seen: 4

Binder	mean normalised NGS count
LGTPATSPPPAPLAHL [TSC1 388-403 mut Q92574.S403L]	0.021
PVAPAPAAPTLAAPAP [TP53 72-87 mut P04637.P82L]	0.0226
ADSAPPPPAPSAPPPH [FOXC1 288-303 wt]	0.00773
TPLPPPSPPPTASDRG [STAC2 72-87 wt]	0.0194
PAHPPPSAAASAPAPS [CHCHD10 24-39 mut Q8WYQ3.P34S]	0.0137
FKLETGPPMGVPPPPP [NR5A1 118-133 wt]	1.49

Same assay, conditions: replicate selections in which the peptide was seen: 5

Binder	mean normalised NGS count
TPPGYSVPVPATELGS [TNFRSF13C 155-170 mut Q96RJ3.H159Y]	0.359
KAAALLTPPPPPLFPP [COLQ 49-64 wt]	0.0142
KQPPSNPPPRPPAEAR [CYBA 149-164 wt]	0.36
MGVLPPPPPAPDYVLP [NR5A1 126-141 mut Q13285.P129L]	0.131

Biological target: T1, AHNAK2_PDZ__Q8IVF2_108_193
Assay: as above
Conditions: replicate selections in which the peptide was seen: 2

Binder	mean normalised NGS count
HSVWINSVGSTASSSQ [KIT 953-968 mut P10721.R956W]	0.177
SSWIIKDDAEVERLTA [SMARCA2 1344-1359 mut P51532.P1344S]	0.232
SSWIIKDDAEVERLTA [SMARCA4 1344-1359 mut P51532.P1344S]	0.232

Each binder was assayed against Intersectin-1_SH3_2_Q15811_913_971 in the same assay as above. Conditions: replicate selections in which the peptide was seen: 2.

Binder	mean normalised NGS count
KAAALLTPPPPPLFPP [COLQ 49-64 wt]	0.00827
FKLETGPPMGVPPLPP [NR5A1 118-133 mut Q13285.P131L]	0.078

Each binder was assayed against NCK1_SH3_1_P16333_5_60 in the same assay as above. Conditions: replicate selections in which the peptide was seen: 4.

Binder	mean normalised NGS count
EIPPPLPVWTPESFIV [PTPN22 612-627 mut Q9Y2R2.R620W]	0.0841
DPLPPPPLPLQPPFGL [MARVELD2 44-59 mut Q8N4S9.P59L]	0.232

Each binder was assayed against Src_SH3__P12931_87_144 in the same assay as above. Conditions: replicate selections in which the peptide was seen: 3.

Binder	mean normalised NGS count
EIPPPLPVWTPESFIV [PTPN22 612-627 mut Q9Y2R2.R620W]	0.0276

Biological target: T1, AHNAK2_PDZ__Q8IVF2_108_193
Assay: as above
Conditions: replicate selections in which the peptide was seen: 5

Binder	mean normalised NGS count
NPSTLGGQGGWITRSG [PKP2 480-495 mut Q99959.R490W]	17.9
PVSEVETWVIAADGGG [NDUFS6 76-91 mut O75380.R83W]	32.4

Same assay, conditions: replicate selections in which the peptide was seen: 6

Binder	mean normalised NGS count
IAEQPVSEVETWVIAA [NDUFS6 72-87 mut O75380.R83W]	27.8

These binders were tested against ALYREF_RRM__Q86V81_78_183 in the same assay as above. Conditions: replicate selections in which the peptide was seen: 3.

Binder	mean normalised NGS count
MMGRLGKVEKQVLSME [KCNQ2 619-634 wt]	0.0519
SLDLRAHLNQVKKEDT [TNNI3 166-181 mut P19429.K174N]	0.0649

These binders were tested against ABL1_SH3__P00519_60_121 in the same assay as above. Conditions: replicate selections in which the peptide was seen: 3.

Binder	mean normalised NGS count
PPDFAAPKAQYQAPDM [IKBKG 392-407 wt]	1.41
YAGPEAAAPGLPEPRA [NKX2-5 56-71 mut P52952.L69P]	0.00538
MGVPPPPPPAPDYVLP [NR5A1 126-141 wt]	0.0223

These binders were tested against Src_SH3__P12931_87_144 in the same assay as above. Conditions: replicate selections in which the peptide was seen: 6.

Binder	mean normalised NGS count
DPLPPPPLPLQPPFGL [MARVELD2 44-59 mut Q8N4S9.P59L]	2.21
DPLPPPPLPLQPPFGP [MARVELD2 44-59 wt]	0.672
EIPPPLPVRTPESFIV [PTPN22 612-627 wt]	5.16

The binders below were run against ABL1_SH3__P00519_60_121 in the same assay as above. Conditions: replicate selections in which the peptide was seen: 2.

Binder	mean normalised NGS count
QQPPPPPPPAQQPPQT [FOXG1 72-87 mut P55316.P82Q]	0.0427
PASRPAAPSAHPPAHP [CHCHD10 12-27 wt]	0.0028
LPPQQHQPAQPGPAAS [KCNC3 36-51 mut Q14003.Q41H]	0.00699

Each binder was assayed against Src_SH3__P12931_87_144 in the same assay as above. Conditions: replicate selections in which the peptide was seen: 2.

Binder	mean normalised NGS count
QQPPPPPPPAQQPPQT [FOXG1 72-87 mut P55316.P82Q]	0.0137

What follows are binders tested against EPS8_SH3_1_Q12929_534_598 (clone: EPS8L1_SH3_1_Q12929_534_598) in the same assay as above. Conditions: replicate selections in which the peptide was seen: 6.

Binder	mean normalised NGS count
MGVPPPPPPAPDYVLP [NR5A1 126-141 wt]	18.9
MGVLPPPPPAPDYVLP [NR5A1 126-141 mut Q13285.P129L]	14.8

The binders below were run against NCK1_SH3_1_P16333_5_60 in the same assay as above. Conditions: replicate selections in which the peptide was seen: 6.

Binder	mean normalised NGS count
MGVPPPPPPAPDYVLP [NR5A1 126-141 wt]	27
MGVLPPPPPAPDYVLP [NR5A1 126-141 mut Q13285.P129L]	38.1

These binders were tested against Src_SH3__P12931_87_144 in the same assay as above. Conditions: replicate selections in which the peptide was seen: 4.

Binder	mean normalised NGS count
MGVPPPPPPAPDYVLP [NR5A1 126-141 wt]	0.103

Biological target: T1, AHNAK2_PDZ__Q8IVF2_108_193
Assay: as above
Conditions: replicate selections in which the peptide was seen: 4

Binder	mean normalised NGS count
AHAANPSTLGGQGGWI [PKP2 476-491 mut Q99959.R490W]	1.43

These binders were tested against ALYREF_RRM__Q86V81_78_183 in the same assay as above. Conditions: replicate selections in which the peptide was seen: 2.

Binder	mean normalised NGS count
PPPREPFAPSLGSAFH [CTNND2 224-239 wt]	0.0606

Each binder was assayed against FKBP1A_full-length__P62942_1_108, P62942 in the same assay as above. Conditions: replicate selections in which the peptide was seen: 2.
Sequence of FKBP1A_full-length__P62942_1_108, P62942 (P62942 whole entry): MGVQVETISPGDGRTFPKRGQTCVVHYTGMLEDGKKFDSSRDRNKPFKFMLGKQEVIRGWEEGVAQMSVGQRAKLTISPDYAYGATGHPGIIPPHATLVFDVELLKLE

Binder	mean normalised NGS count
YPPPPSMPPIRLDNVA [ANXA11 28-43 mut P50995.G38R]	0.109

Biological target: T1, AHNAK2_PDZ__Q8IVF2_108_193
Assay: as above
Conditions: replicate selections in which the peptide was seen: 3

Binder	mean normalised NGS count
IAEQPVSEVETRVIAA [NDUFS6 72-87 wt]	0.0334

The binders below were run against Intersectin-1_SH3_1_Q15811_740_806 in the same assay as above. Conditions: replicate selections in which the peptide was seen: 6.

Binder	mean normalised NGS count
EIPPPLPVRTPESFIV [PTPN22 612-627 wt]	3.88

What follows are binders tested against Intersectin-1_SH3_3_Q15811_1002_1060 in the same assay as above. Conditions: replicate selections in which the peptide was seen: 6.

Binder	mean normalised NGS count
EIPPPLPVRTPESFIV [PTPN22 612-627 wt]	0.918

These binders were tested against Intersectin-1_SH3_5_Q15811_1155_1214 in the same assay as above. Conditions: replicate selections in which the peptide was seen: 6.

Binder	mean normalised NGS count
EIPPPLPVRTPESFIV [PTPN22 612-627 wt]	1.83

Each binder was assayed against Intersectin-1_SH3_2_Q15811_913_971 in the same assay as above. Conditions: replicate selections in which the peptide was seen: 4.

Binder	mean normalised NGS count
FKLETGPPMGVPPPPP [NR5A1 118-133 wt]	0.807

Same assay, conditions: replicate selections in which the peptide was seen: 5

Binder	mean normalised NGS count
FKLETEPPMGVPPPPP [NR5A1 118-133 mut Q13285.G123E]	8.75

Each binder was assayed against ALYREF_RRM__Q86V81_78_183 in the same assay as above. Conditions: replicate selections in which the peptide was seen: 4.

Binder	mean normalised NGS count
EQLPMDLRDRFTEMRE [ING3 12-27 wt]	1.22

What follows are binders tested against Src_SH3__P12931_87_144 in the same assay as above. Conditions: replicate selections in which the peptide was seen: 5.

Binder	mean normalised NGS count
MGVLPPPPPAPDYVLP [NR5A1 126-141 mut Q13285.P129L]	0.163
